Experimental data taken from PubChem BioAssay AID887 (National Center for Advancing Translational Sciences (NCATS), 2007).
About 1,100 (1.5%) of roughly 74,000 compounds were called active. Inconclusive means that the source gave no clear call. Such entries were picked first, then a sample of the others. The call rests on the fitted dose curve; in most records, active means well fitted inhibition curve with a large enough effect; inconclusive means small, poorly fitted or top-dose-only effect; inactive means no such curve, though single readings can be large or run the other way. No potency is given beside an inconclusive call; the fits are too rough. More than one record can exist for a structure, and the calls need not agree.

Molecular target: Polyunsaturated fatty acid lipoxygenase ALOX15 (Homo sapiens) (UniProt P16050)
UniProt P16050, sequence (P16050 whole entry, looked up): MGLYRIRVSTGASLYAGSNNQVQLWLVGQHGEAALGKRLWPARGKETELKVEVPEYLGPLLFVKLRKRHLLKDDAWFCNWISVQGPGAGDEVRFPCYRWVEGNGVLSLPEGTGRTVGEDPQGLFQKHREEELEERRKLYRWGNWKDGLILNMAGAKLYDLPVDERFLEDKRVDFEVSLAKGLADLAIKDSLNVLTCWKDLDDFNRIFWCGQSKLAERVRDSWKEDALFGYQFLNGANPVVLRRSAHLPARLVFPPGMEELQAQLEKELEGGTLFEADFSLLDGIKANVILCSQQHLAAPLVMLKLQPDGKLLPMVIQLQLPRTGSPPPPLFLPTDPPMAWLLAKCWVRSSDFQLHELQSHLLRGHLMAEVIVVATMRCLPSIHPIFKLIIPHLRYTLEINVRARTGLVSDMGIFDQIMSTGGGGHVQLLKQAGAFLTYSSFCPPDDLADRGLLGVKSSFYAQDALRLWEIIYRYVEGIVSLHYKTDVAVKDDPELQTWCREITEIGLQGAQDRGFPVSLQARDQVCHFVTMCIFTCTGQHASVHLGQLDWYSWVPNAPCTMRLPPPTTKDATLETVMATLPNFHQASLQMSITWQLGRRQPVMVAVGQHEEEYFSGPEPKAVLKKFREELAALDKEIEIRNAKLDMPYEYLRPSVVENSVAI
Assay: qHTS Assay for Inhibitors of 15-hLO (15-human lipoxygenase); further: nearly all actives have a fitted effect of over 55% in size
Settings: purified 15hLO-1, xylenol orange hydroperoxide absorbance; activity change, negative = inhibition: at 57.1 µM (top of the series) unless noted
Method in brief: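 40 nM 15hLO-1 + cpd, 15 min RT; start w/ 50 uM AA (final), 6 min RT; stop/detect w/ 200 uM XO + 300 uM Fe(II) in 50 mM H2SO4, 30 min; A573/A405. Buffer 25 mM Hepes pH 7.5, 0.01% Triton X-100. No-enzyme wells as negative control.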
On the % scale 0 is the no-effect control and ±100 the full control effect; potency means the concentration at half of the fitted maximal effect; tags describe the fitted curve by direction and shape.

Row | SMILES | Potency | activity change, negative = inhibition
1 | Cc1ccccc1Cn1ccc(NC(=O)c2cc3nc(-c4ccco4)cc(C(F)(F)F)n3n2)n1 | inactive | –
2 | COCC(=O)N1CCC2(CC1)CN(Cc1nccs1)C2 | inactive | –
3 | Brc1ccc(-c2nc(-c3cccnc3)no2)o1 | inactive | –
4 | Cn1c(Cc2ccccc2)nnc1SCC(=O)N1CCN(c2ccccc2)CC1 | inconclusive [inhibitor, single point] | –
5 | O=S(=O)(c1ccc2nc(-c3ccco3)c(-c3ccco3)nc2c1)N1CCOCC1 | active: 2.51 µM | –
6 | CC(=O)Nc1ccc(SCC(=O)c2cc(C)n(Cc3cccs3)c2C)cc1 | inactive | –
7 | CCc1ccc(C(=O)COC(=O)CNC(=O)c2ccco2)cc1 | inconclusive [inhibitor, partial curve] | –
8 | c1ccc(-c2cnc(CSc3ncnc4sccc34)o2)cc1 | active: 15.8 µM | –
9 | COc1cccc(-c2ccc3ncnc(NCc4cnc(C)cn4)c3c2)c1 | inactive | –
10 | CC1CCCc2sc3nc(NCc4ccco4)n4ncnc4c3c21 (stereo not drawn) | inconclusive [inhibitor, partial curve] | –
11 | CN(C)c1ccc(N=Cc2ccco2)cc1 | inconclusive [inhibitor, partial curve] | –
12 | CCc1c(C)[nH]n(-c2ccc(Oc3ccccc3)c(S(=O)(=O)O)c2)c1=O | inconclusive [inhibitor, single point] | –
13 | Cc1noc(C)c1-c1nc(NCc2ccccc2)c2ccccc2n1 | inconclusive [inhibitor, partial curve] | –
14 | COc1cc(S(=O)(=O)NCCc2ccc3c(c2)OCO3)ccc1-n1cnnn1 | inactive | –
15 | O=c1c(-c2cccc(Cl)c2)nc2cncnc2n1C1CC1 | inconclusive [inhibitor, partial curve] | –
16 | COc1ccc(C(=O)CSc2nnc(CNc3nc(-c4ccccc4)cs3)n2C)cc1 | inconclusive [inhibitor, single point] | –
17 | Oc1[nH]c2ccccc2c1C=Nc1ccc2c(c1)OCCO2 | inconclusive [inhibitor, partial curve] | –
18 | Cc1cc2n(c1)CCn1c(C)ccc1-2 | inconclusive [inhibitor, partial curve] | –
19 | c1ccc2c(c1)CCN(c1nc3ccccc3n3cnnc13)C2 | inactive | –
20 | CCC(=O)N1CCN(c2ccc(NC(=O)c3cc4ccccc4o3)cc2Cl)CC1 | inactive | –
21 | Cc1c(C(=O)NN2CCOCC2)nn(-c2ccc(Cl)cc2Cl)c1-c1ccc(I)cc1 | inconclusive [inhibitor, single point] | –
22 | CC(=O)Nc1nc2n(n1)C(c1ccc(F)cc1)C=C(c1ccccc1)N2 (stereo not drawn) | inconclusive [inhibitor, single point] | –
23 | COc1cc(-c2nnc3sc(Cc4ccccc4)nn23)cc(OC)c1OC | inconclusive [inhibitor, single point] | –
24 | Cc1nc(-n2nnc3ccccc32)c2c3c(sc2n1)CCCC3 | inconclusive [inhibitor, single point] | –
25 | CC1(C)CC(=O)C2=C(C1)OC(N)=C(C#N)C2C1CC=CCC1 (stereo not drawn) | active: 31.6 µM | –

Row | SMILES | Potency | activity change, negative = inhibition
26 | CCOC(=O)c1c(NC(=O)c2noc3c2CCCC3)sc(C)c1C | inconclusive [inhibitor, partial curve] | –
27 | CC(=O)c1cn(CC(=O)NCc2ccc3c(c2)OCO3)c2ccccc12 | inconclusive [inhibitor, single point] | –
28 | COc1cc(C=O)c([N+](=O)[O-])cc1OC | inconclusive [inhibitor, single point] | –
29 | O=C1CCCC2=C1C(c1ccc(Br)cc1)c1c([nH]c(=S)[nH]c1=O)N2 (stereo not drawn) | active: 25.1 µM | –
30 | O=[N+]([O-])c1cccc(Cl)c1Cl | inactive | –
31 | Oc1c([C@H](Nc2ccccn2)c2ccccc2)ccc2cccnc12 | – | inactive: -15.3% [at 11.4 µM]
32 | CC1Cc2ccccc2N1C(=O)C12CCC(C)(C(=O)C1)C2(C)C (stereo not drawn) | inactive | –
33 | Cc1ccccc1C(N)=O | inactive | –
34 | Cc1ccc(OC2C(O)COC2/C=C/C#Cc2ccc(C(C)(C)C)cc2)cc1 (stereo not drawn) | active: 3.16 µM | –
35 | COC(=O)c1ccc2[nH]c(C)c(CN3CCCC3)c(=O)c2c1 | inconclusive [inhibitor, single point] | –
36 | Cc1ccc(Oc2ccc(NC(=O)c3ccco3)cc2)cc1 | inconclusive [inhibitor, partial curve] | –
37 | Oc1ccc(N2CCN(C(c3ccncc3)c3nnnn3C3CCCC3)CC2)cc1 (stereo not drawn) | inconclusive [inhibitor, single point] | –
38 | CCCOC(=O)c1ccc(Oc2c(-c3ccc(O)cc3O)n[nH]c2C)cc1 | inconclusive [inhibitor, partial curve] | –
39 | COc1cccc(-c2nc(N3CCNCC3)c3ccccc3n2)c1 | inactive | –
40 | C[C@@](N)(C(=O)O)c1ccc(S(=O)(=O)O)cc1 | inconclusive [inhibitor, partial curve, poor fit] | –
41 | COc1ccc(-c2n[nH]c(C(F)(F)F)c2-c2cc3ccccc3o2)c(O)c1 | inconclusive [inhibitor, partial curve] | –
42 | O=S(=O)(O)CCS | inconclusive [inhibitor, single point] | –
43 | CCCN1C2=C(C(=O)CCC2)C(c2ccc(O)c(Br)c2)C2=C1CCCC2=O | inconclusive [inhibitor, partial curve] | –
44 | COc1ccc(OC)c(C2OCCC=CC2C)c1 (stereo not drawn) | – | inactive: -1.91% [at 11.4 µM]
45 | COc1ccc(N(CC(=O)NC2CCCC2)C(=O)Cn2nnc(-c3ccc(C)cc3)n2)cc1 | inconclusive [inhibitor, partial curve, poor fit] | –
46 | CCCCCCC1C(C#N)=C(N)OC2=C1C(=O)CCC2 (stereo not drawn) | inconclusive [inhibitor, single point] | –
47 | CCN(CC)CC[n+]1ccc2c(C)c3[nH]c4ccc(O)cc4c3c(C)c2c1 | inconclusive [inhibitor, full curve, poor fit] | –
48 | COc1ccc(CC(=O)Nc2cccc(-c3nnc(-c4cccc(C)c4)o3)c2)cc1OC | inactive | –
49 | COc1ccc(C2CC(=O)c3cnc(NC(=O)c4cccc(OC)c4)nc3C2)cc1 (stereo not drawn) | inactive | –
50 | C[N+](C)([O-])CCC=C1c2ccccc2CCc2ccccc21 | – | inactive: 2.91% [at 11.4 µM]

Row | SMILES | Potency | activity change, negative = inhibition
51 | Cc1ccc(NC(=O)CN2C(=O)NC(Cc3ccccc3)C2=O)cc1 (stereo not drawn) | inconclusive [inhibitor, full curve] | –
52 | Cc1ccc(S(=O)(=O)c2c(N)n(CCN3CCOCC3)c3nc4ccccc4nc23)cc1C | inconclusive [inhibitor, partial curve] | –
53 | CC1CCCCN1Cc1nc2c(c(=O)n(C)c(=O)n2C)n1Cc1c(F)cccc1Cl (stereo not drawn) | active: 25.1 µM | –
54 | N#CC1=C(N)SC(N)=C(C#N)C1c1ccc(C(F)(F)F)cc1 | inconclusive [inhibitor, partial curve] | –
55 | CS(=O)(=O)Nc1ccc(Nc2c3ccccc3nc3ccccc23)cc1 | – | inactive: 0.955% [at 11.4 µM]
56 | COc1cc2c(C(=O)NCc3ccccn3)cn(C)c(=O)c2cc1OC | inactive | –
57 | O=C(NCc1ccco1)Nc1cccs1 | inconclusive [inhibitor, single point] | –
58 | O=C(CN1CCN(c2ccc(F)cc2)CC1)Nc1ccc(F)c(F)c1 | inconclusive [inhibitor, partial curve] | –
59 | C=C1C[C@@]23C[C@]1(O)CC[C@@H]2[C@]12C=C[C@@H](O)[C@](C)(C(=O)O1)[C@H]2[C@H]3C(=O)O | inactive | –
60 | O=C(Nc1ccc(N2CCCCC2)cc1)c1ccc(F)cc1 | inconclusive [inhibitor, single point] | –
61 | Cn1cccc1C(=O)N1CCC2(CCCN(c3ccc(-c4ccccc4)cc3)C2)CC1 | inconclusive [inhibitor, single point] | –
62 | CCN(CC)S(=O)(=O)c1ccc(NC2c3ncccc3C(=O)N2Cc2ccccc2)cc1 (stereo not drawn) | inconclusive [inhibitor, single point] | –
63 | Cn1c(=O)c2c(nc(CN3CCN(Cc4ccccc4)CC3)n2Cc2cccc(Cl)c2)n(C)c1=O | inconclusive [inhibitor, partial curve] | –
64 | COc1ccc(N2CCC(CNC(=O)Nc3ccc(OC)cc3OC)C2)cc1 (stereo not drawn) | inconclusive [inhibitor, single point] | –
65 | C[C@H]1CN(S(=O)(=O)c2cccc3cnccc23)CCN1 | inactive | –
66 | COc1ccc(-n2c(Cc3cccn3C)nnc2SCC(=O)Nc2ccc(C(C)=O)cc2)cc1 | inconclusive [inhibitor, single point] | –
67 | CCCC(=O)c1ccc(N2CCN(C(=O)c3ccccc3)CC2)c(F)c1 | inactive | –
68 | CCc1ccccc1N1CSC2=C(C#N)C(c3cc(OC)c(OC)cc3OC)CC(=O)N2C1 (stereo not drawn) | inconclusive [inhibitor, full curve] | –
69 | Cc1cccc(S(=O)(=O)c2c(N)n(Cc3ccco3)c3nc4ccccc4nc23)c1 | inconclusive [inhibitor, single point] | –
70 | C=C(C)C1CCC(C)=C1COC(=O)Nc1ccccc1 (stereo not drawn) | active: 6.31 µM | –
71 | c1cc(NC2CC2)nc(-c2ccoc2)n1 | inconclusive [inhibitor, partial curve] | –
72 | CC(=O)O[C@](C)(CCC=C(C)C)C1CC=C(C)CC1 (stereo partly drawn) | active: 12.6 µM | –
73 | Cc1ccc(S(=O)(=O)N2CCC(C(=O)N3CCC[C@H]3C(=O)NCc3ccco3)CC2)cc1 | inactive | –
